Data published in ChEMBL document CHEMBL4888484, “Replenishing the malaria drug discovery pipeline: Screening and hit evaluation of the MMV Hit Generation Library 1 (HGL1) against asexual blood stage Plasmodium falciparum ,using a nano luciferase reporter read-out” (2022).
About 540 (0.36%) of roughly 150,000 compounds showed an effect of 50% or more. The list shows a part of the results.

system: Plasmodium falciparum; test: Primary screen in NF54 nanoGlo assay, in single point, at 2uM, 72h; a lower Z score goes with more inhibition; format: functional, Erythrocyte; settings: timepoint 72 hour

For `Cn1nc2c(c1C(=O)NC1(c3c(F)cccc3F)COC1)CCC2`, which “% Inhibition” value is on record?
The value was -5%.

What about the Z score of the same compound?
The Z score was 0.95.

Which results are given for `CC(=O)[C@@H]1C[C@H](C(=O)NCc2ccccc2CN2CCOCC2)C1(C)C`?
% Inhibition: -2%; Z score: 0.23

How did the “% Inhibition” value turn out when `Cc1cccc(-c2ccc(N3CCC(C(=O)NC4CCCC4)CC3)nn2)c1` was run?
Its value is -16%.

And the Z score?
The Z score was 1.53.

`CCc1nnsc1C(=O)NCC1(c2ccccc2)CC1` was tested. Which “% Inhibition” value did it give?
The value was 1%.

What about the Z score of the same compound?
The Z score was -0.08.

With `Cc1cccn2cc(Cn3c(=O)n(CC4CC4)c4ccc(C(=O)O)cc43)nc12` as the compound, how does the “% Inhibition” value read?
The value was 14%.

What about the Z score of the same compound?
The Z score was -1.99.

What does the source list for `Cc1nn(C)c(Oc2cccnc2)c1NC(=O)c1ccccc1`?
% Inhibition: -3%; Z score: 0.56

What does the source list for `N#C[C@@H](C(=O)COC1CCCC1)c1ccccn1`?
% Inhibition: -15%; Z score: 1.68

What does the source list for `Cc1nc(N(C)C)nc(N2CCC(N3CCCCC3)CC2)c1C`?
% Inhibition: -4%; Z score: 0.81

How did the “% Inhibition” value turn out when `CNC(=O)c1cc(Oc2cccc(Oc3ncncc3-c3ccccc3)c2C)ccn1` was run?
The value was 6%.

And the Z score?
The Z score was -1.3.

For `Cc1ccnn1CCC(=O)N1CC[C@@]2(CCCN(CCC3CCCCC3)C2)C1`, which “% Inhibition” value is on record?
The value was 4%.

And the Z score?
Its Z score is -0.52.

What does the source list for `Nc1cnn(Cc2nc(-c3ccsc3)no2)c1`?
% Inhibition: -36%; Z score: 4.21

For `Cc1noc([C@@H]2CCCO[C@H]2C2CCN(c3nc(C)ns3)CC2)n1`, which “% Inhibition” value is on record?
Its value is 4%.

What about the Z score of the same compound?
The Z score was -0.71.

Which results are given for `CCN(CC(F)(F)F)C(=O)NCc1ccc2[nH]cnc2c1`?
% Inhibition: -2%; Z score: 0.4

How did the “% Inhibition” value turn out when `O=C(NCC(F)F)Nc1cccc(-c2cn[nH]c2)c1` was run?
Its value is -5%.

And the Z score?
The Z score was 0.53.

For `CCN1N=C(C(=O)N2CCC(C)CC2)S(=O)(=O)c2ccccc21`, which “% Inhibition” value is on record?
Its value is 1%.

What about the Z score of the same compound?
Its Z score is -0.07.

What does the source list for `Cc1ccc(Cn2cnc3c2c(=O)n(C[C@H]2CCCO2)c(=O)n3-c2ccc(F)cc2F)cc1`?
% Inhibition: -14%; Z score: 1.4

For `C=C(C)CN(CC)C(=O)Nc1ccc(-n2ncn(C)c2=O)cc1`, which “% Inhibition” value is on record?
The value was -8%.

What about the Z score of the same compound?
The Z score was 0.99.

For `CC(C)(CNc1nc(CC2CC2)nc2c1CCNCC2)N1CCOCC1`, which “% Inhibition” value is on record?
Its value is -4%.

And the Z score?
The Z score was 0.7.

With `Cc1ccc(OCCCN(C)C(=O)[C@H]2CCN(C)C2)cc1C` as the compound, how does the “% Inhibition” value read?
The value was -15%.

What about the Z score of the same compound?
The Z score was 1.87.

`CC(NC(=O)CC1CCCCC1)C(=O)NCC(C)N(C)C` (centres undefined) was tested. Which “% Inhibition” value did it give?
The value was -3%.

And the Z score?
Its Z score is 0.35.

With `Cc1cccc(-c2ncc(C(=O)NC[C@H]3CCS(=O)(=O)C3)c(O)n2)c1` as the compound, how does the “% Inhibition” value read?
The value was -3%.

And the Z score?
Its Z score is 0.51.

With `O=C(CNc1cc(F)ccc1OCC(F)(F)F)NC(=O)NC1CC1` as the compound, how does the “% Inhibition” value read?
Its value is -10%.

And the Z score?
Its Z score is 1.6.

With `CCCc1nnc(N2CCC(Oc3ccccc3Cl)CC2)o1` as the compound, how does the “% Inhibition” value read?
Its value is -11%.

And the Z score?
Its Z score is 1.79.

With `Cc1n[nH]c(C)c1CNC(=O)c1cc(Cn2c(C)nc3ccccc32)[nH]n1` as the compound, how does the “% Inhibition” value read?
The value was 12%.

And the Z score?
Its Z score is -1.53.

With `CC(=O)NCCCN[C@@H](C)c1ccc(Br)cc1F` as the compound, how does the “% Inhibition” value read?
The value was -14%.

What about the Z score of the same compound?
The Z score was 1.89.

Which “% Inhibition” value does the source give for `Cc1noc(CNC(=O)N[C@@H](C)C(C)C)n1` here?
The value was 4%.

And the Z score?
The Z score was -0.51.

What does the source list for `O=C1NCCN2CCN(S(=O)(=O)c3cccc4nsnc34)CC[C@@H]12`?
% Inhibition: 3%; Z score: -0.52

`CCOc1cc(C(=O)N[C@@H](CO)C2CCOCC2)n[nH]1` was tested. Which “% Inhibition” value did it give?
The value was 4%.

And the Z score?
Its Z score is -0.5.

`COc1ccc(CC2(CCC(=O)N3CCCC(C)C3)CCC(=O)N2)c(F)c1` (centres undefined) was tested. Which “% Inhibition” value did it give?
Its value is -6%.

And the Z score?
The Z score was 1.06.

What does the source list for `CC(C)N1C[C@@H](C(=O)N(C)CC(=O)NC(C)(C)C)CC1=O`?
% Inhibition: -3%; Z score: 0.53

For `Cc1nc([C@H](C)N(C)Cc2cc(C(N)=O)oc2C(C)(C)C)c(C)s1`, which “% Inhibition” value is on record?
Its value is 4%.

What about the Z score of the same compound?
Its Z score is -0.47.

What does the source list for `Cc1nc(N2CCN(C)CC2)ncc1-c1cc(=O)[nH]c(N2c3ccccc3C[C@@H]2C)n1`?
% Inhibition: 1%; Z score: -0.1

With `O=S(=O)(c1cnc2n1CCC2)N1CC2(CCCC2)c2cccc(Cl)c21` as the compound, how does the “% Inhibition” value read?
Its value is -4%.

And the Z score?
Its Z score is 0.72.

Which “% Inhibition” value does the source give for `CCCN(CCC)S(=O)(=O)c1cc2c(cc1Cl)Oc1cc(C)ccc1NC2=O` here?
Its value is -1%.

What about the Z score of the same compound?
Its Z score is 0.18.

What does the source list for `O=C(Nc1ccc2c(c1)OCO2)c1nnc(C(=O)N2CCC(C(=O)N3CCCC3)CC2)s1`?
% Inhibition: -8%; Z score: 1.22

`CC(O)CC1COCCN1C(=O)NCCC1Cc2ccccc2C1` (centres undefined) was tested. Which “% Inhibition” value did it give?
Its value is -9%.

And the Z score?
The Z score was 0.95.

How did the “% Inhibition” value turn out when `CCCc1cnc(C)nc1N1CCN(Cc2ccncc2Cl)CC1` was run?
Its value is -13%.

What about the Z score of the same compound?
Its Z score is 1.53.

Which “% Inhibition” value does the source give for `OC[C@H]1COc2ccccc2[C@H]1NCC1(O)CCCC1` here?
Its value is -2%.

What about the Z score of the same compound?
Its Z score is 0.45.

With `O=C(CN1CCN(CC(=O)c2ccccc2)CC1)c1ccccc1` as the compound, how does the “% Inhibition” value read?
The value was 0%.

And the Z score?
Its Z score is -0.02.

With `Cc1ccc(S(=O)(=O)Nc2c(S(=O)(=O)c3ccccc3)c3nc4ccccc4nc3n2CCc2ccccc2)cc1` as the compound, how does the “% Inhibition” value read?
Its value is 86%.

And the Z score?
Its Z score is -14.39.

How did the “% Inhibition” value turn out when `CCOC(=O)CNC(=O)[C@@H](OC(=O)c1ccccc1)C(C)(C)CN1CCCC1=O` was run?
Its value is -9%.

And the Z score?
Its Z score is 1.13.

`CCCc1noc([C@H](C)NC(=O)CNC(N)=O)n1` was tested. Which “% Inhibition” value did it give?
Its value is 4%.

What about the Z score of the same compound?
Its Z score is -0.49.
